# Test results as given in PubChem BioAssay (NCATS).
# “And” between values parts separate entries of the source, which are not always exact repeats. Identical values can stand only once. The inconclusive results got no clear call from the source; some entries with a clear call stand among them for comparison. For part of these data: Potencies of inconclusive entries are left out as doubtful fits. The source made the active and inactive calls. Unless noted, calls follow the shape of the dose curve; as a rule, active = well fitted curve in the direction sought with a large enough effect; inconclusive = small, poorly fitted or top-dose-only effect, or another doubt; inactive = no such curve, though single readings can be large; an effect the other way counts as inactive or inconclusive.
# Key:
# [1] = molecular target: DNA polymerase kappa (Homo sapiens) (UniProt Q9UBT6); test: qHTS for Inhibitors of Polymerase Kappa: Confirmatory Assay for Cherry-picked Compounds (AID 720501); conditions: purified Pol-kappa, fluorescent strand-displacement substrate; also: potency is read from the fitted curve at half-maximal effect
# Outline: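 Strand-displacement fluorescence read-out: TAMRA reporter released from a BHQ-2-quenched template, measured at 525/598 nm over a 10 min kinetic window. Substrate was 50 nM final; enzyme was 10 nM Pol-kappa, preincubated 15 min at room temperature with compound.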
# [2] = molecular target: Rap guanine nucleotide exchange factor 3 (Homo sapiens) (UniProt O95398); test: Confirmatory qHTS for antagonist of cAMP-regulated guanine nucleotide exchange factor 3 (EPAC1) (AID 1645880); conditions: EPAC1 Rap1B-BODIPY-GDP exchange, fluorescence; activity, negative = inhibition: at 115 µM (top of the series); also: potency is read from the fitted curve at half-maximal effect; nearly all actives have a fitted effect of over 55% in size
# Outline: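 Nucleotide exchange uses 100 nM EPAC1, 250 nM RAP1B-BODIPY-GDP and 50 uM GDP, with compounds in a concentration-titration series. After 5 min at room temperature, fluorescence (480 nm ex/540 nm em) is read every 5 min for 30 min. Data are normalized to control ATA and DMSO.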
# [3] = molecular target: Rap guanine nucleotide exchange factor 3 (Homo sapiens) (UniProt O95398); test: Counterscreen qHTS for agonist of cAMP-regulated guanine nucleotide exchange factor 3 (EPAC1) (AID 1645889); conditions: EPAC1 Rap1B-BODIPY-GDP exchange, fluorescence; activation: at 154 µM (top of the series) unless noted; also: nearly all actives have a fitted effect of over 40% in size; also: potency is read from the fitted curve at half-maximal effect; as to activation: % of control where 0% means no effect
# Outline: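 Rap1B-BODIPY-GDP 250 nM + GDP 50 uM; cpds 7-pt, final 9.74 nM–152 uM (activator mode) or from 7.32 nM upwards (inhibitor mode); RT; FI 480/540 nm at 5 and 30 min, then ± cAMP, reread.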
# [4] = molecular target: DNA polymerase eta (Homo sapiens) (UniProt Q9Y253); test: qHTS for Inhibitors of Polymerase Eta: Confirmatory Assay for Cherry-picked Compounds (AID 720502); conditions: Pol eta primer extension, TAMRA/BHQ fluorescence, 10 min; also: potency is read from the fitted curve at half-maximal effect
# Outline: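 Human Pol eta at 10 nM was preincubated with compound for 15 min at room temperature. Reaction was started with TAMRA/BHQ-2-labelled primer-template substrate (50 nM final), with fluorescence read at 0 and 10 min (ex 525, em 598 nm).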
# [5] = molecular target: Bifunctional 3'-5' exonuclease/ATP-dependent helicase WRN (Homo sapiens) (UniProt Q14191); test: qHTS for Inhibitors of WRN Helicase: Confirmatory Assay for Cherry-picked Compounds. (AID 720497); conditions: WRN helicase DNA unwinding, fluorescence kinetic; series mostly up to 57.1 µM; also: potency is read from the fitted curve at half-maximal effect; nearly all actives have a fitted effect of over 65% in size
# Outline: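 Confirmatory retest of cherry-picked hits in 1536-well format. Enzyme (20 nM final) sat with compound for 15 min at room temperature before forked duplex substrate (100 nM) and ATP (2 mM) were added, and unwinding was followed kinetically by red fluorescence.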
# [6] = qHTS for Inhibitors of WRN Helicase: Thiazole Orange DNA Binding Counterscreen (AID 720499); conditions: thiazole orange DNA binding displacement, fluorescence; series mostly up to 57.1 µM;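 also: drop in dye fluorescence marks compound binding to DNA; % is scaled to controls: 0 for no effect and ±100 for the full control effect; nearly all actives have a fitted effect of over 60% in size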
# Outline: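 Fluorescence at 530 nm (excitation 480 nm) is measured after compounds incubate 15 min at room temperature with unlabeled DNA (50 nM) bound to thiazole orange (100 nM). Decreased signal indicates nonspecific DNA binding.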
# [7] = molecular target: Cytochrome P450 2C9 (Homo sapiens) (UniProt P11712); test: qHTS Assay for Inhibitors and Substrates of Cytochrome P450 2C9 (AID 883); conditions: recombinant CYP2C9, luciferin-H luminescence, 60 min; series mostly up to 57.1 µM; also: potency is read from the fitted curve at half-maximal effect; nearly all actives have a fitted effect of over 60% in size
# Outline: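 Turnover of Luciferin-H (100uM, KM) by 10nM human CYP2C9 was measured over 60 min at 37C with NADPH regeneration; inhibitors and some substrates reduce luminescence. Data normalized to sulphaphenazole 57uM.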
# [8] = molecular target: Cytochrome P450 3A4 (Homo sapiens) (UniProt P08684); test: qHTS Assay for Inhibitors and Substrates of Cytochrome P450 3A4 (AID 884); conditions: recombinant CYP3A4, Luciferin-PPXE luminescence; activity change, negative = inhibition: at 57.1 µM (top of the series); also: potency is read from the fitted curve at half-maximal effect; nearly all actives have a fitted effect of over 50% in size
# Outline: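 20 nM human CYP3A4 with 25 uM Luciferin-PPXE (at KM) in 200 mM KPO4, preincubated 10 min with compound; NADPH regeneration started a 60 min RT reaction. Luciferin detected by luminescence, normalized to 57 uM ketoconazole as full inhibition.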
# [9] = molecular target: Cytochrome P450 3A4 (Homo sapiens) (UniProt P08684); test: qHTS Assay for Activators of Cytochrome P450 3A4 (AID 885); conditions: recombinant CYP3A4, Luciferin-PPXE luminescence, 60 min; series mostly up to 57.1 µM; also: potency is read from the fitted curve at half-maximal effect; nearly all actives have a fitted effect of over 65% in size
# Outline: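 20nM CYP3A4 + 25uM Luciferin-PPXE (=KM), 200mM KPO4; cpd 10 min RT; NADPH regen, 60 min RT; stop w/ detection buffer, 20 min; luminescence. Normalized to 57 uM ketoconazole.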
# [10] = qHTS Assay for Identification of Small Molecule Antagonists for NFkB Signaling Pathway (AID 895; active = well fitted inhibition curve with a large enough effect in the signal ratio, with a control signal flat, not every such curve was filed as active; inconclusive = small, poorly fitted or top-dose-only effect, or effect the other way, or a change in a side signal; the % refers to the signal ratio; also: potency is read from the fitted curve at half-maximal effect); conditions: NFkB beta-lactamase reporter cells, FRET ratio 460/530, stimulated with 10 pM TNF alpha; activity change, negative = inhibition: at 38.3 µM (top of the series)
# Outline: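 Beta-lactamase reporter read-out (460 and 530 nm emission ratio, 405 nm excitation, 2 hrs substrate loading RT) after 5 hr stimulation with 10 pM TNF alpha in compound-treated NFkB-bla ME-180 cells in low-serum medium.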
# [11] = molecular target: Cytochrome P450 2C19 (Homo sapiens) (UniProt P33261); test: qHTS Assay for Inhibitors and Substrates of Cytochrome P450 2C19 (AID 899); conditions: recombinant CYP2C19, luciferin-H EGE luminescence; series mostly up to 57.1 µM; also: potency is read from the fitted curve at half-maximal effect; nearly all actives have a fitted effect of over 60% in size
# Outline: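 Reactions contain 5nM enzyme, 10uM Luciferin-H EGE (KM) and 50mM KPO4; compound preincubates 10 min at 37C, NADPH regeneration starts turnover for 60 min. Luminescence after detection reagent gives activity.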
# [12] = qHTS Assay for Identification of Small Molecule Antagonists for Thrombopoietin (TPO) Signaling Pathway (AID 918); conditions: TPO-dependent cell signaling reporter, antagonist mode; activity change, negative = inhibition: at 38.5 µM (top of the series); also: nearly all actives have a fitted effect of over 60% in size
# Outline: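 Murine Ba/F3 cells expressing human TPO receptor and a Glycoprotein IIb promoter-luciferase reporter, IL-3-starved overnight, treated with compound plus TPO at EC50 (26 pM final). After 24 h at 37 C, luminescence read to detect inhibitors.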
# [13] = molecular target: Pyruvate kinase PKM (Homo sapiens) (UniProt P14618); test: qHTS Assay for Activators of Human Muscle Pyruvate Kinase (AID 954; active = well fitted curve in the direction sought with a large enough effect, not every such curve was filed as active; inconclusive = small, poorly fitted or top-dose-only effect, or effect the other way, or another doubt; inactive = no such curve, though single readings can be large or run the other way;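 also: 0% = uninhibited enzyme and -100% = no enzyme or full thiadiazolimine inhibition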); conditions: purified human muscle pyruvate kinase, luciferase-coupled luminescence, 1 h; series mostly up to 57.5 µM
# Outline: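 Luminescence from a luciferase ATP-detection/stop reagent reported PKM2 activity. Reactions contained 0.1 nM purified human enzyme, 0.5 mM PEP, 0.1 mM ADP and 7 mM MgCl2 at pH 7.2, run 1 h at RT.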
# [14] = molecular target: Dual specificity protein kinase CLK4 (Homo sapiens) (UniProt Q9HAZ1); test: qHTS Assay for Inhibitors of CDC-like Kinase 4 (ADP-FP Assay) (AID 1795); conditions: Transcreener ADP fluorescence polarization; series mostly up to 50 µM
# Outline: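 Clk4 6.25 nM; RS peptide 100 uM; ATP 1 uM; 25 mM Tris pH 7.5, 10 mM MgCl2; 1 h reaction. ADP detected via antibody/orange tracer FP displacement; TG003 positive control.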
# Tags tell the direction and shape of the fitted curve or compound fluorescence and quenching.
# Sequence of UniProt P08684 (P08684 whole entry, looked up): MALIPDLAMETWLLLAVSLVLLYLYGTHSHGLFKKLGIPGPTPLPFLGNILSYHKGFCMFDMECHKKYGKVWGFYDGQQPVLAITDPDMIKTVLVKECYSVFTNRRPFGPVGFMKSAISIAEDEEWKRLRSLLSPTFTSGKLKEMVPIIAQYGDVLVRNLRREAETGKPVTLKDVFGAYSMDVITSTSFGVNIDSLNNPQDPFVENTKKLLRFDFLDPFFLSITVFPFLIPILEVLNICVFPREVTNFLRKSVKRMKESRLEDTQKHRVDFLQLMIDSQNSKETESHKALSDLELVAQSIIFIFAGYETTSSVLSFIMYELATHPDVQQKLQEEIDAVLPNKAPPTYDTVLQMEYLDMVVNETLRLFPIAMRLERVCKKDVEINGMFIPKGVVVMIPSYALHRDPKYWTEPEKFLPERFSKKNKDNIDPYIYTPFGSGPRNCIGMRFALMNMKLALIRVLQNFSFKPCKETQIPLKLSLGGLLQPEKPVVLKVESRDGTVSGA
# Sequence of UniProt Q9Y253 (Q9Y253 whole entry, looked up): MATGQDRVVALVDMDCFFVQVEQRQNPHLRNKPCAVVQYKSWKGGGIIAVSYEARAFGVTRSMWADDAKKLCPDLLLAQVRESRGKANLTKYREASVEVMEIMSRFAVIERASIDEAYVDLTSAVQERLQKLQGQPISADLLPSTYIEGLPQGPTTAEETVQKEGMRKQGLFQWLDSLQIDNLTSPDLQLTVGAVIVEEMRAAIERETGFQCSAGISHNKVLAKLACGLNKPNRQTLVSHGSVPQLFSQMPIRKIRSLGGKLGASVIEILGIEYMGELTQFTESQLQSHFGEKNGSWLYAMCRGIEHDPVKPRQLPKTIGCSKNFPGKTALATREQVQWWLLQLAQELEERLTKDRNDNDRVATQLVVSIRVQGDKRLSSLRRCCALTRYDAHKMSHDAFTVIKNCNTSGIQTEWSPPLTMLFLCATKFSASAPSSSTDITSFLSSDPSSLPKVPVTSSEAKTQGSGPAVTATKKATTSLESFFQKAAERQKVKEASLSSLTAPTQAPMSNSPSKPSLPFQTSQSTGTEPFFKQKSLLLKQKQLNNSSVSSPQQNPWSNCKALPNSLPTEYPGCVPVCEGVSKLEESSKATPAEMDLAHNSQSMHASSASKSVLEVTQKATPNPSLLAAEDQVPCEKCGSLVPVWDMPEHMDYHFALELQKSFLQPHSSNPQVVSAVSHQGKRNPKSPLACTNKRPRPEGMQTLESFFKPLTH
# Sequence of UniProt O95398 (O95398 whole entry, looked up): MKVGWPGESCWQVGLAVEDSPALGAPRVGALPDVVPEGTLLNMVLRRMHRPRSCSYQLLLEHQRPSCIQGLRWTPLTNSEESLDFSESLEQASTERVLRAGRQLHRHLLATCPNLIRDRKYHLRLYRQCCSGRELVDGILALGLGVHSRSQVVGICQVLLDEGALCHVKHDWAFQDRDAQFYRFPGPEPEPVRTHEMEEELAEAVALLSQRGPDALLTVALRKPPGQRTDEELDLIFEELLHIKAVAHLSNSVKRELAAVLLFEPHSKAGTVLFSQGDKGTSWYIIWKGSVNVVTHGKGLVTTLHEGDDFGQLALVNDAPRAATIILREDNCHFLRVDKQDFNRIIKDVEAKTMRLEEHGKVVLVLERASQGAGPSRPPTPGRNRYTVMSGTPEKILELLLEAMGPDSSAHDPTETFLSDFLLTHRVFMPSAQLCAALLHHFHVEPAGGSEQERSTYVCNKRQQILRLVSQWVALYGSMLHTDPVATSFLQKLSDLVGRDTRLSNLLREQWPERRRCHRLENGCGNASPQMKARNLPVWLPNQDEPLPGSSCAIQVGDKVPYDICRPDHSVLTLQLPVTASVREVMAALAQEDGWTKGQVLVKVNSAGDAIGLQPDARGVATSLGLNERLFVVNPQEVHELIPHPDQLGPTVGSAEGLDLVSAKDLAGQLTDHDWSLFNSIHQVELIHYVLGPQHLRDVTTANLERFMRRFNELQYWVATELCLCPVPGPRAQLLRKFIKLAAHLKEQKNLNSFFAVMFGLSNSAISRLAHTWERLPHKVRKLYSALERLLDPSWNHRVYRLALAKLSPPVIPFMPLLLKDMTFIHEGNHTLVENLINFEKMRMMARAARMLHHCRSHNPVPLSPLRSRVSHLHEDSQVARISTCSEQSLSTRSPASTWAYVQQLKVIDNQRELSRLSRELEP
# Sequence of UniProt P33261 (P33261 whole entry, looked up): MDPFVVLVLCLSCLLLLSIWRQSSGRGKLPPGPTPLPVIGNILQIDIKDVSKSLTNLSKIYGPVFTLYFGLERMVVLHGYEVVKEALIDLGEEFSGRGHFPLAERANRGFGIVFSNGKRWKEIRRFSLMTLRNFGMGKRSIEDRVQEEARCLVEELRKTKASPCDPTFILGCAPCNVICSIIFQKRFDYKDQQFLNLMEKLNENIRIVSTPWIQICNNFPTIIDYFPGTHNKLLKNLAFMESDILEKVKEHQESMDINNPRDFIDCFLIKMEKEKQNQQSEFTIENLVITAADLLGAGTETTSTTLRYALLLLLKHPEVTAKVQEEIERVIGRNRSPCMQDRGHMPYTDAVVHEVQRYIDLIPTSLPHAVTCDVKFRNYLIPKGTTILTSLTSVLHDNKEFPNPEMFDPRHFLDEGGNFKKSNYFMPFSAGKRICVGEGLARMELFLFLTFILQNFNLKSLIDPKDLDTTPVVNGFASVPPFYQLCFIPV
# Sequence of UniProt Q9UBT6 (Q9UBT6 whole entry, looked up): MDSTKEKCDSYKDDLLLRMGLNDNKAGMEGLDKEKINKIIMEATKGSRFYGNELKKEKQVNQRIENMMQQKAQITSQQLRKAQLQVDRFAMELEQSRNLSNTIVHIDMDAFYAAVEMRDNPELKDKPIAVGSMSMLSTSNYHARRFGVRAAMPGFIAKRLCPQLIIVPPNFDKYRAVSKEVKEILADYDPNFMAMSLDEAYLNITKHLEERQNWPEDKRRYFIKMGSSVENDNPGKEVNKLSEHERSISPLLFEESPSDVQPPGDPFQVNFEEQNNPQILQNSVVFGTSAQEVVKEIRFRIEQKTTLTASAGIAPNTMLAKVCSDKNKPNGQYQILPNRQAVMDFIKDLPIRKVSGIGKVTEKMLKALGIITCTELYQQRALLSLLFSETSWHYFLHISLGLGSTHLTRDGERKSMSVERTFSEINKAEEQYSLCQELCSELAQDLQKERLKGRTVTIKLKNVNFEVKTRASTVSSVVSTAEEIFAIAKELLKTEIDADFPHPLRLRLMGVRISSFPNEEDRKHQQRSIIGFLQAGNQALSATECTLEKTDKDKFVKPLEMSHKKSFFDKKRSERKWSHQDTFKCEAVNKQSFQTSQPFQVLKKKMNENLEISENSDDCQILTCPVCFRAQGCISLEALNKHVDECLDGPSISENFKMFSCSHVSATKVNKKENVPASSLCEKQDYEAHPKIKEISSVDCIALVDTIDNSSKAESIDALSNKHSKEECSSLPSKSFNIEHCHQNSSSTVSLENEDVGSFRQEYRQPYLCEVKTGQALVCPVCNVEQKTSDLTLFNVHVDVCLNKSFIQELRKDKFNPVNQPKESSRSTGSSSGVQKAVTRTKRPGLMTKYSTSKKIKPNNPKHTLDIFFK
# Sequence of UniProt Q9HAZ1 (Q9HAZ1 whole entry, looked up): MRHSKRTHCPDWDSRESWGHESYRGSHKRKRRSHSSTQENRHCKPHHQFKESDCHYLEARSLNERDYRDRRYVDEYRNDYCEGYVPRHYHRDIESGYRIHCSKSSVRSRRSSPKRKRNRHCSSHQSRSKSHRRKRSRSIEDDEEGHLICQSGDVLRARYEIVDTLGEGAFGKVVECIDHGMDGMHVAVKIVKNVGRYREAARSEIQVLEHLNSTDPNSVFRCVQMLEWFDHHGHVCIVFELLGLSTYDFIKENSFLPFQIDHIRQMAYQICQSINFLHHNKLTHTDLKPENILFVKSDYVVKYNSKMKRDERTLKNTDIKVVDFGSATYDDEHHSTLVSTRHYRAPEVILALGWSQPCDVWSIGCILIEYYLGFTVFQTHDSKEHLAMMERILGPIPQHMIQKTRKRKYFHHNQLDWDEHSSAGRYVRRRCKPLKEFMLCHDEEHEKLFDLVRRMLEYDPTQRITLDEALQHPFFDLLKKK
# Sequence of UniProt P11712 (P11712 whole entry, looked up): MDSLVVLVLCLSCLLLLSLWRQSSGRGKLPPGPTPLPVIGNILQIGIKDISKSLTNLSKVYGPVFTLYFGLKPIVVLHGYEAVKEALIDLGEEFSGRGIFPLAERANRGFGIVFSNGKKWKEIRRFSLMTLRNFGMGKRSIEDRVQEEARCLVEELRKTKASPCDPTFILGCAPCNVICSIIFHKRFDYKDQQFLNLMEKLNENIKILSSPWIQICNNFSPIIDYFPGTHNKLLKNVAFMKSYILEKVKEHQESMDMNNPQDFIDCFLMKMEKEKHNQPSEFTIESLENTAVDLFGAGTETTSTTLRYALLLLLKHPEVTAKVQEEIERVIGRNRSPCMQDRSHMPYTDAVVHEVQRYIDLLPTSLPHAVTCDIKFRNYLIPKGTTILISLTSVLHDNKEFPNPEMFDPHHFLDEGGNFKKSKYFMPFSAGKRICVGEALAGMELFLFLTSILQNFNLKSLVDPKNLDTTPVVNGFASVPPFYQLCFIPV
# Sequence of UniProt P14618 (P14618 whole entry, looked up): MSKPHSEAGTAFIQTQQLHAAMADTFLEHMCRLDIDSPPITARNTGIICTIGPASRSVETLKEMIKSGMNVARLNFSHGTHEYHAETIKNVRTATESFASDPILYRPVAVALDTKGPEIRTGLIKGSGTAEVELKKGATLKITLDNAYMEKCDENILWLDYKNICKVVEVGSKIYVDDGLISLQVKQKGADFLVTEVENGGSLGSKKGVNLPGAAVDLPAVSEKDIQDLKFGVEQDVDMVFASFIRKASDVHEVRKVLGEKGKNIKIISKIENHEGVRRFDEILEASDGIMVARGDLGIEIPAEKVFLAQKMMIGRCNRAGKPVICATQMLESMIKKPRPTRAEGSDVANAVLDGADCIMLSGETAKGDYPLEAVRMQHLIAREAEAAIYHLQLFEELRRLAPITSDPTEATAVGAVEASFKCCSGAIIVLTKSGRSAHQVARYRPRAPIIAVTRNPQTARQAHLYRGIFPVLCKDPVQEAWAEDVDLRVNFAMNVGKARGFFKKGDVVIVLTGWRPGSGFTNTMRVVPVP
compound,measurement,setting,value
NS(=O)(=O)c1cc(C(=O)NC2CCSc3ccccc32)ccc1Cl (stereo not drawn),Potency,[1],active: 0.267 µM
same,Potency,[2],active: 13.5 µM
same,activation,[3],inconclusive: 35.5% [activator]
Cc1csc(NC(=O)CSc2sc3c(O)cc(=O)[nH]c3c2C#N)n1,Potency,[1],"inconclusive [inhibitor, partial curve]"
same,Potency,[4],"inconclusive [inhibitor, single point]"
same,Potency,[2],"inconclusive [inhibitor, partial curve]"
same,Potency,[3],"inconclusive [activator, full curve]"
CN1\C(=C/C=C/C=C/C=[N+](C)C)C(C)(C)c2ccccc21,Potency,[4],active: 33.8 µM
same,Potency,[2],active: 39.8 µM
same,Potency,[3],"inconclusive [activator, partial curve]"
O=C1C(Cl)=C(NCCc2ccccc2)C(=O)c2ccccc21,Potency,[5],"inconclusive [inhibitor, partial curve]"
same,Potency,[6],inactive
same,Potency,[2],"inconclusive [inhibitor, partial curve]"
same,Potency,[3],"inconclusive [activator, partial curve]"
COC(=O)c1c(NC(=O)COC(=O)c2ccc(NC(=O)CC#N)cc2)sc2c1CCCCC2,Potency,[4],active: 30.1 µM
same,Potency,[2],"inconclusive [inhibitor, full curve]"
same,Potency,[3],"inconclusive [activator, partial curve, poor fit]"
COc1cc(/C=N/NC(=O)c2ccccc2O)ccc1OCC(=O)Nc1ccccc1,Potency,[4],"inconclusive [inhibitor, partial curve]"
same,Potency,[2],"inconclusive [inhibitor, partial curve]"
same,activation,[3],inactive: 13.4% [at 30.8 µM]
O=C(NCc1ccccc1)c1ccc2nc(-c3ccco3)c(-c3ccco3)nc2c1,Potency,[4],"inconclusive [inhibitor, single point]"
same,Potency,[2],active: 16.9 µM
same,Potency,[3],"inconclusive [activator, full curve, poor fit]"
COc1ccc(CNc2nc(-c3ccc4c(c3)OCO4)nc3ccccc23)c(OC)c1,Potency,[7],"inconclusive [inhibitor, partial curve]"
c1nc(NC2CC2)c2cc(-c3ccoc3)ccc2n1,Potency,[8],"inconclusive [inhibitor, partial curve]"
COCCNc1ncnc2ccc(-c3ccc(N(C)C)cc3)cc12,Potency,[8],active: 7.94 µM
O=C(c1cccc(F)c1)N1CCC2(CCN(Cc3cc(C(F)(F)F)cc(C(F)(F)F)c3)CC2)CC1,Potency,[9],"inconclusive [activator, partial curve]"
COC(=O)C1=C(C)NC(C)=C([N+](=O)[O-])[C@H]1c1ccccc1C(F)(F)F,Potency,[10],"inconclusive [inhibitor, single point]"
same,Potency,[11],active: 1.26 µM and active: 158 nM
same,"activity change, negative = inhibition",[12],inconclusive: -29.1% [phenotype inactive]
same,Potency,[13],inactive
CN(C)c1ncnc2ccc(-c3cccc(NS(C)(=O)=O)c3)cc12,Potency,[14],active: 12.6 µM
CN(Cc1ccco1)c1ncnc2ccc(-c3ccoc3)cc12,Potency,[14],active: 0.0501 µM
